Laboratory results: PubChem BioAssay AID2147 (National Center for Advancing Translational Sciences (NCATS), 2009)
The campaign covered roughly 230,000 compounds. About 3,600 (1.6%) were called active. Inconclusive results, whose numbers are uncertain, are shown with a selection of clear calls. Calls come from the whole dose curve; as a rule, active = well fitted inhibition curve with a large enough effect (not every such curve was filed as active); inconclusive = small, poorly fitted or top-dose-only effect, or another doubt; inactive = no such curve, though single readings can be large or run the other way. Potencies beside an inconclusive call are fits to weak or partial responses and may not hold up.
Note: nearly all actives have a fitted effect of over 50% in size.
Potency is the fitted concentration of half-maximal effect; tags give direction and shape of the fitted curve.
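Throughout, for activity change, negative = inhibition: 0% = wells with enzyme and -100% = buffer wells without enzyme.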

The molecules below were run against Lysine-specific demethylase 4E (Homo sapiens) (UniProt B2RXH2) (assay: qHTS Assay for Inhibitors of Human Jumonji Domain Containing 2E (JMJD2E)). Conditions: JMJD2E catalytic domain, FDH-coupled NADH fluorescence (FDH is formaldehyde dehydrogenase); series mostly up to 57.1 µM; activity change, negative = inhibition: at the top concentration.
UniProt B2RXH2, sequence (B2RXH2 whole entry, looked up, the tested form may be a part): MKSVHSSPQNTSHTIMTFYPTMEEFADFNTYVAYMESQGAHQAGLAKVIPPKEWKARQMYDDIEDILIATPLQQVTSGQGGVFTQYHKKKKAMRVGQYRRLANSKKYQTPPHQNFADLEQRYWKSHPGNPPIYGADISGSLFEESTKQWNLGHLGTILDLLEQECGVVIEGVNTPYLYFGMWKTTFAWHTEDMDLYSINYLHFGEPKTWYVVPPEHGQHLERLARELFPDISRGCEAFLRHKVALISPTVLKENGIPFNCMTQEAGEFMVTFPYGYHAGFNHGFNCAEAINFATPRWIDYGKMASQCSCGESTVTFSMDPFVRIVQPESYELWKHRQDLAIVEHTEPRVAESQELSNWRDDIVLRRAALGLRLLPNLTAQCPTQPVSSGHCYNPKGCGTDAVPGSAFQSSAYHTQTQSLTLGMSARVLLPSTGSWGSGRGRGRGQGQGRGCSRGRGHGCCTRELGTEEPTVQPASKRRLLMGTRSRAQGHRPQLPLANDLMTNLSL
With COc1ccc(-c2nn(-c3ccccc3)cc2/C=C/C(=O)N2CCOCC2)cc1OC the Potency was inconclusive: 31.6 µM [inhibitor, partial curve]. COc1cc(NC(=O)c2cccnc2Sc2ccc(C)c(C)c2)cc(OC)c1OC was tested, and the Potency was inconclusive: 39.8 µM [inhibitor, single point]. COc1ccccc1NS(=O)(=O)c1cc(NC(=O)c2cccs2)ccc1N1CCCC1 was tested, and the Potency was inconclusive: 35.5 µM [inhibitor, single point]. In the case of COC(=O)C1C(O)=C(C(C)=Nc2cccc3ccccc23)C(=O)CC1(C)C (stereo unspecified), the Potency is reported as inconclusive: 31.6 µM [inhibitor, partial curve]. With COc1ccc(/C=C2/CCc3ccccc3C2=O)cc1CN1CCOCC1 the “activity change, negative = inhibition” value was inactive: -16.1%. In the case of COC(=O)CSc1nc(N2CCOCC2)c2c(c1C#N)CC(C)(C)N(C)C2, the Potency is reported as inconclusive: 35.5 µM [inhibitor, single point]. Cc1c(C(=O)N2CCCC2)sc(NC(=O)c2ccccc2)c1C#N was tested, and the “activity change, negative = inhibition” value was inactive: -8.04%. In the case of CCOC(=O)N=Nc1c(O)n(CC(=O)OC)c2ccccc12, the “activity change, negative = inhibition” value is reported as inactive: -12.6%. With Cc1nc(N2CCOCC2)c2nc(-c3ccccc3)n(CC3CCN(C)CC3)c2n1 the Potency was inconclusive: 28.2 µM [inhibitor, partial curve]. COc1cccc(C(=O)c2c[nH]c(C(=O)NCCCN3CCOCC3)c2)c1 was tested, and the Potency was inconclusive: 17.8 µM [inhibitor, single point]. In the case of CCOc1ccc2[nH]c(=O)c(CN(CCO)C(=O)c3ccc(Br)cc3)cc2c1, the Potency is reported as inconclusive: 10 µM [inhibitor, partial curve]. O=C(O)CCC(=O)Nc1ccccc1C(=O)NCc1ccco1 was tested, and the Potency was inconclusive: 35.5 µM [inhibitor, single point]. With CCSc1nc(N2CCOCC2)c2c(c1C#N)CC(C)(C)N(C)C2 the Potency was inconclusive: 39.8 µM [inhibitor, single point]. With COCCNc1nc(-c2cc(-c3ccc(Cl)cc3)on2)cc(C(C)C)n1 the Potency was inconclusive: 31.6 µM [inhibitor, partial curve]. With O=C(CSc1ncc(-c2ccccc2)[nH]1)Nc1ccccc1F the “activity change, negative = inhibition” value was inactive: -4.13%. With CCCCn1c2c(c(=O)n(C)c1=O)C(c1ccc(OC)cc1)N1CCCCCC1=N2 (stereo unspecified) the Potency was inconclusive: 28.2 µM [inhibitor, single point]. COC(=O)c1cc(=O)nc2sccn12 was tested, and the Potency was inconclusive: 28.2 µM [inhibitor, partial curve]. In the case of Cc1cccc(C)c1N=Cc1c(O)n(-c2nccs2)c(=O)c2ccccc12, the Potency is reported as inconclusive: 31.6 µM [inhibitor, single point]. For O=C(CC1CS(=O)(=O)CC1CC(=O)Oc1ccccc1F)Oc1ccccc1F (stereo unspecified), the “activity change, negative = inhibition” value was inactive: -2.15%. In the case of CCOc1cc(-c2cc(-c3ccc(OC)cc3)nc(N)c2C#N)ccc1O, the Potency is reported as inconclusive: 25.1 µM [inhibitor, partial curve]. With Cc1ccc(C(=O)Nc2ccccc2)cc1S(=O)(=O)Nc1ccc(Cl)cn1 the Potency was inconclusive: 25.1 µM [inhibitor, single point]. For COc1ccc(C2OCC3(COC(C)=O)C(C)C=C(C)C2C3C)cc1 (stereo unspecified), the “activity change, negative = inhibition” value was inactive: 4.14%. In the case of Cc1cc(/C=N/NC(=O)c2nn(C)cc2Cl)c(C)n1-c1cccc(Br)c1, the Potency is reported as inconclusive: 39.8 µM [inhibitor, single point]. For COc1ccc(CNCCc2ccc(Cl)cc2)cc1OCc1ccccc1, the Potency was inconclusive: 39.8 µM [inhibitor, single point]. For O=C(Oc1cc(=O)oc2c1c(=O)n1c3c(cccc23)CC1)c1ccc(F)cc1, the Potency was inconclusive: 37.7 µM [inhibitor, single point]. With NC(=O)c1ccccc1N=Cc1ccccn1 the Potency was inconclusive: 31.6 µM [inhibitor, partial curve]. For COc1ccccc1-c1nc(C#N)c(N2CCC(C(N)=O)CC2)o1, the Potency was inconclusive: 28.2 µM [inhibitor, partial curve]. In the case of CC1CCCN(c2nc3ccccc3nc2C(C#N)S(=O)(=O)c2ccccc2)C1 (stereo unspecified), the Potency is reported as inconclusive: 25.1 µM [inhibitor, partial curve]. In the case of Cc1nc(NCCNC(=O)c2ccco2)c2c(C)c(C)sc2n1, the Potency is reported as inconclusive: 39.8 µM [inhibitor, single point]. For CC1CCN(Cc2cc(=O)oc3ccc4ccccc4c23)CC1, the Potency was inconclusive: 39.8 µM [inhibitor, single point]. With CCOc1ccccc1C(=O)Nc1cc(C(=O)NCC(C)C)ccc1Cl the Potency was inconclusive: 31.6 µM [inhibitor, single point]. For Cc1cc2cc(OCC(=O)O)ccc2n1C, the Potency was inconclusive: 39.8 µM [inhibitor, single point]. With COCCn1c(=O)[nH]c(=O)c2c(C(F)(F)F)cc(-c3cccs3)nc21 the Potency was inconclusive: 14.1 µM [inhibitor, partial curve]. With O=C(NC(Nc1nc2ccc([N+](=O)[O-])cc2s1)(C(F)(F)F)C(F)(F)F)c1cccnc1 the “activity change, negative = inhibition” value was inactive: -2.57%. CN1CCN(NC(=O)c2cc(Br)ccc2Cl)CC1 was tested, and the “activity change, negative = inhibition” value was inactive: 4.24%. With CCCn1c(O)c(C=Nc2ccccc2)sc1=S the “activity change, negative = inhibition” value was inactive: 4.11%. With CCOC(=O)N1CCN(C/C(C)=C/c2ccccc2)CC1 the Potency was inconclusive: 39.8 µM [inhibitor, single point]. With CCOc1ccc2cc(C#N)c(SCC(=O)N3CCC(C)CC3)nc2c1 the Potency was inconclusive: 28.2 µM [inhibitor, partial curve]. In the case of C=C(C)C1Cc2c(C)nn(-c3nc(C)cc(C)n3)c2C1 (stereo unspecified), the “activity change, negative = inhibition” value is reported as inactive: -4.58%. CCCc1nc2sc(C(=O)OCC)c(N)c2c2c1COC(C)(C)C2 was tested, and the Potency was inconclusive: 2.82 µM [inhibitor, partial curve]. CC1=C(C(=O)OC(C)(C)C)C(c2cccs2)NC(=O)N1 (stereo unspecified) was tested, and the “activity change, negative = inhibition” value was inactive: 0.0844%. With COc1ccc(/C=N/NC(=O)c2ccc(COc3cccc4cccnc34)cc2)cc1OC the Potency was inconclusive: 35.5 µM [inhibitor, single point]. With CCN(CC)c1ccc2c(Cl)c(Br)c(=O)oc2c1 the Potency was inconclusive: 28.2 µM [inhibitor, partial curve]. With CC1=C(C#N)C(=O)N(C2CCS(=O)(=O)C2)C(=O)/C1=C\c1ccc(C)o1 (stereo unspecified) the Potency was inconclusive: 39.8 µM [inhibitor, single point]. Cc1cc(C(=O)N/N=C2\CC(=O)CC(C)(C)C2)c(C)n1-c1ccc(F)cc1 was tested, and the “activity change, negative = inhibition” value was inactive: -21.9%. With CN(CCC#N)C(=O)COC(=O)c1cc(Cl)cc(Cl)c1N the Potency was inconclusive: 31.6 µM [inhibitor, partial curve]. In the case of Cc1ccc(S(=O)(=O)N(C)Cc2cc3ccccc3[nH]c2=O)cc1, the Potency is reported as inconclusive: 39.8 µM [inhibitor, single point]. With Cc1ccccc1-c1nc(C#N)c(NCc2ccco2)o1 the Potency was inconclusive: 8.91 µM [inhibitor, partial curve]. In the case of CCn1nnc(-c2ccccc2NC(=O)c2ccc(-n3cnnn3)cc2)n1, the Potency is reported as inconclusive: 35.5 µM [inhibitor, single point]. For COC(=O)c1ccc(S(=O)(=O)N2CCCN(Cc3cccc(Br)c3F)CC2)n1C, the “activity change, negative = inhibition” value was inactive: -12.5%. In the case of O=C(CSc1nc2c(sc3ccccc32)c(=O)n1-c1ccccc1)NCc1ccco1, the “activity change, negative = inhibition” value is reported as inactive: -4.94%. In the case of Cc1ccc(-n2c(CCC(=O)O)ccc2-c2cccs2)cc1C, the Potency is reported as inconclusive: 28.2 µM [inhibitor, partial curve]. In the case of Cc1cc(N2CCCCC2)n2ncc(-c3ccccc3)c2n1, the Potency is reported as inconclusive: 31.6 µM [inhibitor, partial curve]. In the case of Cc1sc2ncnc(N(C)Cc3cccs3)c2c1C, the “activity change, negative = inhibition” value is reported as inactive: -4.34%. For N#Cc1ccccc1NCc1ccccc1, the Potency was inconclusive: 31.6 µM [inhibitor, single point]. For CCOC(=O)N/N=C\C=C\c1ccc2c(c1)OCO2, the Potency was inconclusive: 31.6 µM [inhibitor, single point]. In the case of O=C(CCCOc1ccc(Cl)cc1Cl)NNC(=O)c1ccc(NC(=O)c2ccccc2)cc1, the Potency is reported as inconclusive: 20 µM [inhibitor, partial curve]. COc1cc(C(C(=O)Nc2c(C)cccc2C)N(C)C(=O)c2ccc(-n3cnnn3)cc2)ccc1O (stereo unspecified) was tested, and the “activity change, negative = inhibition” value was inactive: 7.71%. In the case of O=C(Nc1ccccc1OC(F)F)c1cc2c(s1)CCC2, the “activity change, negative = inhibition” value is reported as inactive: -22.9%. COC(=O)NC1CSCC1OC(=O)CN1C(=O)c2ccccc2C1=O (stereo unspecified) was tested, and the “activity change, negative = inhibition” value was inactive: 5.23%. COc1ccc(-c2nc(C#N)c(NCCCN(C)C)o2)cc1OC was tested, and the Potency was inconclusive: 14.1 µM [inhibitor, partial curve]. For COc1ccc(C(=O)[C@H]2[C@H]3C(=O)N(c4ccc(C)cc4)C(=O)[C@H]3C3C=CC=NN32)cc1 (stereo partly specified), the Potency was inconclusive: 11.2 µM [inhibitor, partial curve]. In the case of FC(F)(F)c1cc(Oc2ccccc2)ncc1-c1nnc(-c2ccccc2Cl)o1, the Potency is reported as inconclusive: 31.6 µM [inhibitor, single point]. With CC(C)Cc1nc2ccccc2n1CCc1ccccc1 the “activity change, negative = inhibition” value was inactive: 3.01%. With CCn1nnnc1-c1ccc(OC)c(S(=O)(=O)Nc2ccc(C)c(C)c2)c1 the “activity change, negative = inhibition” value was inactive: -2.08%. N[C@@H](C(=O)O)c1ccc(P(=O)(O)O)cc1 was tested, and the Potency was inconclusive: 31.6 µM [inhibitor, partial curve, poor fit]. With Cc1ccc(-c2nn(-c3ccccc3)cc2C(N)=O)o1 the Potency was inconclusive: 22.4 µM [inhibitor, partial curve]. COc1ccc(C(=O)c2oc3ccc(OC)cc3c2NC(C)=O)cc1 was tested, and the Potency was inconclusive: 35.5 µM [inhibitor, single point]. CCC(CO)[n+]1c(C)cc(/C=C2\Sc3ccccc3N2Cc2ccccc2)cc1C (stereo unspecified) was tested, and the “activity change, negative = inhibition” value was inactive: -11%. With c1ccc(C2NCCn3cccc32)cc1 (stereo unspecified) the Potency was inconclusive: 17.8 µM [inhibitor, partial curve]. O=S(=O)(/N=C(/Nc1ccc(Cl)c(S(=O)(=O)Nc2ccccc2Cl)c1)c1ccc(F)cc1)c1ccccc1 was tested, and the Potency was inconclusive: 35.5 µM [inhibitor, single point].
